# The campaign covered roughly 310,000 compounds. About 2,200 (0.71%) showed an effect of 50% or more. Effects have a minus sign here. The list shows a part of the results.
# Target: human ether-à-go-go-related gene (hERG) potassium channel (human, UniProt Q12809)
# Test: primary screen, population patch clamp on CHO cells stably expressing hERG
# human ether-à-go-go-related gene (hERG) potassium channel, sequence (Q12809 whole entry, looked up): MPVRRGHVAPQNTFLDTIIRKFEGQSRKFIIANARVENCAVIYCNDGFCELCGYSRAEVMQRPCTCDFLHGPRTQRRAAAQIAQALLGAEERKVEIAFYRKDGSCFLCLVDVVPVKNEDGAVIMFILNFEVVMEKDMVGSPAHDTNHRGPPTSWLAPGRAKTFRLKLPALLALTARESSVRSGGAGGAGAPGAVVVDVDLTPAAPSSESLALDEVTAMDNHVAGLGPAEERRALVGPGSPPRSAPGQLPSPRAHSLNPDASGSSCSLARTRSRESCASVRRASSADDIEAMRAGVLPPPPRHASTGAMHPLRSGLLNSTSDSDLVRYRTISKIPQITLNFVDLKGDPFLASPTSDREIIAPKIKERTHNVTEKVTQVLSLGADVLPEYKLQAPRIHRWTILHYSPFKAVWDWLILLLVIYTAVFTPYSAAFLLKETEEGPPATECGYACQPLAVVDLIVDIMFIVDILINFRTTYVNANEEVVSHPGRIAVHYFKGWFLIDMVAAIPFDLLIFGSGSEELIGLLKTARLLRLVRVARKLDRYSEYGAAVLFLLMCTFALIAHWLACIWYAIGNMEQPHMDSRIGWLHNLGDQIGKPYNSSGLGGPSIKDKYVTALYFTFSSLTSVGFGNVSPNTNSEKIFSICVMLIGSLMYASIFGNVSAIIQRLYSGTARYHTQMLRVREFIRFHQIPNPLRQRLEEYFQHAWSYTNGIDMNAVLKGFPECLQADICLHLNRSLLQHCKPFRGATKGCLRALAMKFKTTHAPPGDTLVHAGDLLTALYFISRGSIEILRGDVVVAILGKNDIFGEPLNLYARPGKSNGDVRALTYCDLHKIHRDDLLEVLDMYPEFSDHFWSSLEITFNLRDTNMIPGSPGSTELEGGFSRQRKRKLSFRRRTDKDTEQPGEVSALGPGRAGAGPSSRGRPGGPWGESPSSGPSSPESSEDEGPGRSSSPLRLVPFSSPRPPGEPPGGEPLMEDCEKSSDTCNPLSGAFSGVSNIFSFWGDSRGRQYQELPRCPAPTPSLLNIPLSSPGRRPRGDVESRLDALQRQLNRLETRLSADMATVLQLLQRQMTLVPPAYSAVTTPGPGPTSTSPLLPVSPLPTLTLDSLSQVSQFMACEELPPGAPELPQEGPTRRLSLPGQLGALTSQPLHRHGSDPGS
row,Structure (SMILES),"hERG current change (%, negative = inhibition) at 1uM [%]"
1,O=C(Nc1cccc(Cl)c1)Nc1ccccc1-n1ccnc1,-5.6
2,Cc1cc(C)c(-n2c(SCCS(=O)(=O)c3ccc(F)cc3)n[nH]c2=O)c(C)c1,13.1
3,O=C1N(c2ccc(Cl)cc2)C(c2cccnc2)N2CCCN12 (centres unmarked),6.95
4,CC(C)NCCOCCOc1ccc(Cl)cc1Br.O=C(O)C(=O)O,-10.4
5,O=C(CCN1C(=O)c2ccccc2C1=O)NCc1ccncc1,10.6
6,CCC(C)Nc1nc(N)c([N+](=O)[O-])c(N2CCCCCC2)n1 (centres unmarked),12
7,Cn1c2ccc(F)cc2c2ncn(CC3CCCO3)c(=O)c21 (centres unmarked),12
8,CCOC(=O)c1ccc(NC(=O)C(C)Sc2nc(O)c(-c3ccccc3)c(=O)[nH]2)cc1 (centres unmarked),13
9,CCOc1ccc(C(=O)NCC(=O)N2CCN(C/C=C/c3ccccc3)CC2)cc1OCC,-1.35
10,CC1=Nc2ccccc2N=C(NC(=O)CN2CCN(c3ccc(F)cc3)CC2)C1c1ccccc1 (centres unmarked),14.2
11,Cc1ccc(NC(=O)CN2CCN(Cc3ccccc3)CC2)c(Br)c1.Cl,-36.7
12,CN(Cc1c[nH]c2ccccc12)C1CCCCC1,4.04
13,Cc1cccc(NC(=S)NNC(=O)c2cccc([N+](=O)[O-])c2)c1,9.77
14,COc1ccc(N2CC(NC(=O)c3ccc4ccccc4c3)CC2=O)cc1OC (centres unmarked),-16.2
15,Cc1ccc(-c2cc(C(=O)N3CCCc4ccccc43)no2)cc1,-75.5
16,CCOC(=O)c1sc(=NC(=O)COc2ccccc2)n(C)c1C,13.6
17,O=C(O)CCCn1cc(NC(=O)c2sc3ccccc3c2Cl)cn1,25.7
18,Fc1ccccc1C1CCN(Cc2nc(COc3ccccc3)no2)C1 (centres unmarked),11.3
19,Cc1nn(C)c(C)c1/C=N/NC(=O)CCn1nc(C)c([N+](=O)[O-])c1C,10.3
20,CC(C#N)Sc1nnc(Nc2ccccc2)s1 (centres unmarked),2.64
21,CC(NC(=O)C1CC=CCC1C(=O)O)C1CC2CCC1C2 (centres unmarked),16.7
22,COc1ccc(OCCN2CCN(C(=O)c3ccc(OC(F)F)c(OC)c3)CC2)cc1,-62.6
23,Cc1ccc(C)c(Nc2cc(C)nc3ccccc23)c1,-1.3

row,Structure (SMILES),"hERG current change (%, negative = inhibition) at 1uM [%]"
1,CCOc1ccc(NC(=O)Cn2ncc3ccccc32)cc1,10.9
2,O=C(Nc1ccc(C2=NCCN2)cc1)c1ccc(C(=O)Nc2ccc(C3=NCCN3)cc2)c(Cl)c1,2.4
3,NC(=O)c1cc2n(n1)C(C(F)(F)F)CC(c1ccco1)N2 (centres unmarked),1.11
4,CCOC(=O)c1cnc2c(OC)cccc2c1Nc1ccc2c(c1)OCCO2,-3.26
5,OCCC1CN(Cc2ccc3ncccc3c2)CCN1Cc1ccccc1 (centres unmarked),9.68
6,COCCCN(Cc1ccco1)C(=O)Cn1ncc2c([nH]c3ccccc32)c1=O,-5.46
7,COc1ccc(Nc2ccc(S(=O)(=O)N3CCCCC3)cc2[N+](=O)[O-])cc1,13.1
8,Cc1ccc(-n2ncc3c(SCc4ccccc4)ncnc32)cc1,4.49
9,COCCn1c(SCC(=O)Nc2cccnc2Cl)nc2cc(Cl)ccc2c1=O,-11.2
10,COC(=O)c1ccc(/C=N\NC(=O)c2c(C)nc3ccc(Cl)cn23)cc1,17.1
11,CC1=NN(C(N)=S)C(=O)C1N=Nc1c(C)cc(C)cc1C (centres unmarked),13.9
12,Cc1cccc(N2CCN(C(=O)c3cccc(N4C(=O)C5C6C=CC(C6)C5C4=O)c3)CC2)c1C (centres unmarked),20.4
13,O=C(O)Cn1nc2ccccc2n1,18.7
14,COc1ccc(C(=O)N/N=C/c2cc(Br)ccc2O)cc1OC,14.7
15,CC(NC(=O)COC(=O)/C=C/c1ccc([N+](=O)[O-])cc1)c1ccccc1 (centres unmarked),-7.15
16,Cc1oc2ccc(OC(=O)N(C)C)cc2c1C(=O)OC(C)C,10.3
17,CC(C)CN(CC(C)C)CC(O)COc1ccccc1Br.Cl (centres unmarked),10.3
18,O=C(NC1CCCCC1)C(c1ccc(F)cc1)N(Cc1cccs1)C(=O)CN1C(=O)c2ccccc2S1(=O)=O (centres unmarked),8.39
19,CCOC(=O)C1C(c2ccc(O)c(OC)c2)NC(=S)NC1(O)C(F)(F)F (centres unmarked),3.29
20,O=C(O)C1CCN(c2nc(-c3ccccc3)c3cc(Br)ccc3n2)CC1,10.8
21,COc1ccc(/C=C2\SC(=S)N(CCCC(=O)Nc3ccc(O)cc3)C2=O)cc1,7.57
22,COc1cccc(NS(=O)(=O)c2cc(C)ccc2OC)c1,10.9
23,O=C1CSc2ccc(S(=O)(=O)NCc3ccc(F)cc3)cc2N1,5.12

row,Structure (SMILES),"hERG current change (%, negative = inhibition) at 1uM [%]"
1,O=S(=O)(/N=C(/Nc1cccc2ccccc12)c1ccccc1)c1ccc(F)cc1,19.9
2,FC(F)Sc1ccc(NC(=S)NCC2CCCCC2)cc1,9.18
3,COc1ccc(NC(=O)c2oc3ccccc3c2NC(=O)C2CC2)c(OC)c1,7.93
4,COc1ccccc1Oc1ncnc2c1oc1ccccc12,11.6
5,O=C(NCN1CCOCC1)c1cnccn1,9.95
6,O=c1[nH]c(C2CCCN(S(=O)(=O)c3cccc(Cl)c3)C2)nc2c1nnn2Cc1ccc2c(c1)OCCO2 (centres unmarked),15.9
7,FCCCOc1ccc(-c2ccnc3ncnn23)cc1,14.7
8,Cc1cc2c(=O)n(CC(=O)NCC(=O)N3CCN(Cc4ccccc4)CC3)cnc2s1,14.1
9,COc1cccc(-c2ccc(NC(=O)C3CCCN(Cc4cnn(C)c4)C3)cc2)c1 (centres unmarked),-0.218
10,O=C(CSc1nncs1)NC(=O)NCc1ccccc1,11.1
11,O=C(CCN1C(=O)C2C3C=CC(C3)C2C1=O)Nc1ccccn1 (centres unmarked),5.49
12,COc1cc(/C=C/C(=O)NC2CCCCC2)cc(OC)c1OC,11.9
13,COC(=O)c1ccc(-c2noc(CN(C)CC3CCCCO3)n2)cc1 (centres unmarked),26.3
14,Cc1cccc(N2CCN(C(=O)c3ccccc3OCc3c(C)noc3C)CC2)c1C,6.54
15,Cc1nn(Cc2ccc(Cl)cc2)c(C)c1NC(=O)/C=C/c1cnn(C)c1,10
16,CCN1CN(CCc2ccccc2)CNC1=S,9.7
17,Cc1cc(C)c(-n2c(C)cc(/C=C3/NC(=O)NC3=O)c2C)c(C)c1,-1.75
18,CCOc1ccc(CSc2nc(C)cc(COC)c2C#N)cc1OCC,12.2
19,CN(CC(=O)Nc1ccncc1)S(=O)(=O)c1ccc(Br)cc1,-0.533
20,COc1ccc(N2C(=O)CSC(c3ccccc3)C2=O)cc1 (centres unmarked),21.4
21,COCC(=O)N1CCC(Oc2ccc(C(=O)N(C)Cc3nccs3)cc2)CC1,9.32
22,O=C(NCCCc1ccccc1)C1CCN(c2nnc(-n3cccc3)s2)CC1,4.33
23,CC(=O)Nc1ccc(S(=O)(=O)N2CCN(C(=O)c3ncoc3-c3ccc(C)cc3)CC2)cc1,10.9

row,Structure (SMILES),"hERG current change (%, negative = inhibition) at 1uM [%]"
1,Cc1ccc(NC(=O)C(C)c2cccc(C(=O)c3ccccc3)c2)cc1O (centres unmarked),-7.06
2,Cc1ccc(/C=N/NC(=O)CN2CCN(Cc3ccccc3Cl)CC2)o1,0.392
3,O=C(NCCN1CCN(C(=O)c2ccc(F)cc2)CC1)C(=O)NCc1ccccc1,-75.1
4,OCC1(Cc2ccccc2C(F)(F)F)CCN(Cc2ccccc2)CC1,3.01
5,O=C1C=C(c2cc(C(F)(F)F)cc(C(F)(F)F)c2)C[C@@H](c2ccc(Cl)cc2)C1,11
6,Cl.Oc1ccc(Cl)cc1CNCc1ccc(Cl)nc1,6.71
7,O=C(Nc1ccncc1)Nc1ccccc1Cl,7.97
8,Cc1cc(C)n2nc(C(=O)OC(C)C(=O)c3cc(C)c(C)cc3C)nc2n1 (centres unmarked),-1.08
9,CC(=O)NC(=O)c1ccc(-c2ccc(Cl)cc2)o1,9.38
10,CCOC(=O)C1=C(N)c2ccccc2CC1C(C)C (centres unmarked),5.94
11,CCCCc1nc2cc(C(=O)NCc3ccccn3)ccc2o1,19.9
12,CC1CCCC(NC(=O)CCC(=O)c2ccc(F)cc2)C1C (centres unmarked),7.59
13,Cc1ccc(C)c(-n2c(SCC(=O)Nc3nnc(C)s3)nnc2-c2ccoc2C)c1,10.1
14,CCOc1ccc(C(=O)Nc2nnc(SCC(=O)NCC3CCCO3)s2)cc1OCC (centres unmarked),3.82
15,O=C(Cn1cnc2c(cnn2-c2ccccc2)c1=O)Nc1cc(S(=O)(=O)N2CCOCC2)ccc1Cl,-8.68
16,CCOC(=O)c1sc(=S)n(-c2cc(OC)ccc2OC)c1N,6.58
17,CSc1nc2nccc(/C=C\c3ccccc3)n2n1,-5.9
18,CSc1cc(C)nc(NC(C)=O)n1,13.1
19,O=C(Cc1ccc(Cl)cc1)NNC(=O)C1CC=CCC1C(=O)O (centres unmarked),16.4
20,CN(C)c1cc(-c2ccc(Cl)cc2Cl)oc(=O)c1Cl,8.27
